The record followed here is the supplement of paper PMC3724861.

Some of the results follow.

This experiment concerns T1, Caupolican (Caup) homeodomain DNA-binding domain.
T1 sequence: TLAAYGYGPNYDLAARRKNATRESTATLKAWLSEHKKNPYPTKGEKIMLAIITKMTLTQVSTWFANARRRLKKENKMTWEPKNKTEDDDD
Description: PBM E-score (8-mer, recovered from the published 9-mer minima) (E-score (dimensionless, -0.5 to 0.5)); Drosophila protein; higher = stronger relative binding preference, active = 0.31 or more. A digest of the protocol: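 Caup's homeodomain DNA-binding domain (residues 214-303) was made by in vitro transcription and translation and applied at 100 nM to custom-designed protein binding microarrays. Each value is an enrichment score that gives relative binding preference for a short DNA word, with higher meaning stronger. The 8-mer values were recovered from published 9-mer scores, each of which was the minimum of its two constituent 8-mer scores. A cutoff of 0.31 marks candidate sites.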
In the case of CTCACTAA, the “PBM E-score” value was inactive: 0.0552.

Take CCGTCAGC: the “PBM E-score” value is inactive: -0.212.

Consider ACCATCAA, for which the “PBM E-score” value is inactive: 0.0235.

Take CTAATATC: the “PBM E-score” value is inactive: 0.0723.

For the sequence GCCAGATA, the “PBM E-score” value was inactive: 0.0198.

In the case of ACGTCATA, the “PBM E-score” value is inactive: 0.144.

Regarding CCTATAGC, the “PBM E-score” value is inactive: -0.0609.

As to CTTAGGTC, the “PBM E-score” value is inactive: -0.112.

In the case of ATCCCACG, the “PBM E-score” value was inactive: -0.115.

Regarding AGCATACG, the “PBM E-score” value is inactive: -0.0321.

On to CGCTCAGA, for which the “PBM E-score” value was inactive: -0.0619.

For CCTTCGGA, the “PBM E-score” value was inactive: -0.217.

In the case of AGCGCATA, the “PBM E-score” value is inactive: 0.0861.

For the sequence AACTGCCA, the “PBM E-score” value is inactive: -0.103.

On to AATAGACG, for which the “PBM E-score” value was inactive: 0.0464.

For the sequence ATTGTGAG, the “PBM E-score” value was inactive: -0.00149.

For the sequence ACGCCAAT, the “PBM E-score” value was inactive: -0.0189.

Turning to CCTCGCAG, the “PBM E-score” value was inactive: -0.211.

As for CATGCGAA, the “PBM E-score” value was inactive: 0.048.

For CTGTAAAG, the “PBM E-score” value is inactive: 0.0792.

As for CCCTCATC, the “PBM E-score” value was inactive: -0.071.

Consider CCTGCCCA, for which the “PBM E-score” value was inactive: -0.155.

With CCGTGGAG, the “PBM E-score” value is inactive: -0.191.

Consider CAGTCCGA, for which the “PBM E-score” value was inactive: -0.0187.

GCCGTACC: the “PBM E-score” value is inactive: -0.214.

As to ACGAAATA, the “PBM E-score” value is inactive: 0.136.

In the case of CAGGCCGG, the “PBM E-score” value was inactive: -0.192.

For the sequence GTCGAGGA, the “PBM E-score” value was inactive: -0.0553.

For ACCATGCC, the “PBM E-score” value was inactive: -0.0174.

On to AACCACAG, for which the “PBM E-score” value was inactive: -0.00398.

Take TAGATACA: the “PBM E-score” value was inactive: 0.258.

For the sequence AAGGCGTC, the “PBM E-score” value was inactive: -0.129.

In the case of CAGTCAGG, the “PBM E-score” value is inactive: -0.056.

For CGCCTGTC, the “PBM E-score” value is inactive: -0.0132.

In the case of CAAGAGAG, the “PBM E-score” value was inactive: -0.0747.

Regarding GAAATATA, the “PBM E-score” value is inactive: 0.19.

On to ATCACTGA, for which the “PBM E-score” value is inactive: 0.0623.

On to CTACTGCA, for which the “PBM E-score” value was inactive: 0.092.

For the sequence ATCGTCAG, the “PBM E-score” value was inactive: 0.0328.

With AGCCTAAC, the “PBM E-score” value was inactive: -0.0972.

Take CAATCCGA: the “PBM E-score” value was inactive: 0.0536.

Turning to AGTGGCCC, the “PBM E-score” value is inactive: -0.198.

GCCCCACC: the “PBM E-score” value is inactive: -0.234.

For the sequence AAAGAATG, the “PBM E-score” value was inactive: 0.146.

On to AACCTCCT, for which the “PBM E-score” value was inactive: -0.0171.

Turning to GACCTGGA, the “PBM E-score” value was inactive: -0.125.

For ACATAAAT, the “PBM E-score” value is active: 0.318.

On to CAGTCGAG, for which the “PBM E-score” value was inactive: -0.131.

With GGACTAAC, the “PBM E-score” value was inactive: 0.0611.

For the sequence AGGTCATA, the “PBM E-score” value was inactive: 0.0294.

On to CCAGTGCA, for which the “PBM E-score” value was inactive: -0.0461.

With AGCAACAT, the “PBM E-score” value was inactive: 0.244.

For CCGAGCTC, the “PBM E-score” value was inactive: -0.14.

In the case of AAACCACC, the “PBM E-score” value was inactive: -0.105.

With CCTGCGGC, the “PBM E-score” value is inactive: -0.288.

As to ACTACCCA, the “PBM E-score” value was inactive: -0.0238.

Turning to CCCCGGGA, the “PBM E-score” value was inactive: -0.227.

As for AGAAGATC, the “PBM E-score” value was inactive: -0.0662.

For AAGCCGAT, the “PBM E-score” value is inactive: -0.016.

GGCCCAGA: the “PBM E-score” value was inactive: -0.262.

With ATAATCAC, the “PBM E-score” value is inactive: 0.159.

Consider TTACAAAA, for which the “PBM E-score” value was inactive: 0.203.

In the case of ATATGTTC, the “PBM E-score” value was active: 0.347.

As for GGTATGAC, the “PBM E-score” value is inactive: 0.0376.

Consider CCTCTGAA, for which the “PBM E-score” value is inactive: -0.139.

For the sequence CCTCGTCC, the “PBM E-score” value was inactive: -0.118.

CCGTGCTC: the “PBM E-score” value is inactive: 0.0654.

For TGAGATAA, the “PBM E-score” value was inactive: 0.0767.

For the sequence GTGGAATA, the “PBM E-score” value is inactive: 0.0463.

Regarding ACTCCGCG, the “PBM E-score” value is inactive: -0.143.

GACGAGCA: the “PBM E-score” value was inactive: -0.0101.

Take ACGACAGA: the “PBM E-score” value was inactive: 0.0786.

For the sequence CGCCAAAA, the “PBM E-score” value is inactive: -0.109.

ACTTCGAC: the “PBM E-score” value is inactive: 0.0234.

In the case of CATGCTGG, the “PBM E-score” value is inactive: 0.0451.

Consider ATCCAAGA, for which the “PBM E-score” value is inactive: 0.0394.

With CTCTGATC, the “PBM E-score” value was inactive: -0.0475.

As for AGGAACTG, the “PBM E-score” value is inactive: -0.0798.

CATTCTTA: the “PBM E-score” value is inactive: 0.0205.

With ATGTTGTG, the “PBM E-score” value is inactive: 0.282.

Consider ACCGGCGC, for which the “PBM E-score” value is inactive: -0.159.

Take CTGTTACC: the “PBM E-score” value is inactive: 0.142.

As to GCGTAGAC, the “PBM E-score” value was inactive: -0.149.

In the case of TCGACCAA, the “PBM E-score” value was inactive: -0.0712.

As to GTGGCGTA, the “PBM E-score” value was inactive: -0.00325.

In the case of TATTCCAA, the “PBM E-score” value is inactive: 0.0797.

On to ATGGACGA, for which the “PBM E-score” value is inactive: 0.0414.

GCTCTAGA: the “PBM E-score” value is inactive: -0.155.

As for ATGTGGAC, the “PBM E-score” value was inactive: 0.167.

For the sequence CTACTTGA, the “PBM E-score” value was inactive: 0.136.

Regarding CACAACCG, the “PBM E-score” value was inactive: 0.119.

For the sequence ATAAGATC, the “PBM E-score” value was inactive: 0.0436.

Take CAGATCCC: the “PBM E-score” value is inactive: -0.111.

As to CCTTCTTA, the “PBM E-score” value is inactive: -0.0401.

As for GGCAGCCA, the “PBM E-score” value is inactive: -0.198.

On to CGTGAAGA, for which the “PBM E-score” value is inactive: -0.00622.

Take CTGGACGC: the “PBM E-score” value was inactive: -0.187.

Take GAATATCA: the “PBM E-score” value is inactive: 0.0584.

Turning to AGGACCGG, the “PBM E-score” value is inactive: -0.193.

Turning to GGACCGGA, the “PBM E-score” value was inactive: -0.113.

As to TAACACTA, the “PBM E-score” value was inactive: 0.237.

As to ACCGGGAG, the “PBM E-score” value was inactive: -0.137.

For the sequence ATGTCTCC, the “PBM E-score” value was inactive: 0.189.

Turning to ACCAAAAC, the “PBM E-score” value was inactive: -0.016.

As to ACGACCTC, the “PBM E-score” value is inactive: 0.0193.

For the sequence AGGTATTG, the “PBM E-score” value is inactive: 0.115.

ATTGTTTA: the “PBM E-score” value is inactive: 0.186.

Turning to GAACACTA, the “PBM E-score” value was inactive: 0.103.

Take CTTGTTCC: the “PBM E-score” value was active: ≥ 0.337.

Turning to CATTGTAG, the “PBM E-score” value was inactive: 0.0869.

For GAAACTAC, the “PBM E-score” value was inactive: 0.164.

With ATATACAT, the “PBM E-score” value was active: 0.367.

Turning to CCTCCAGC, the “PBM E-score” value is inactive: -0.243.

AAATTCCT: the “PBM E-score” value was inactive: -0.0223.

With CGTGTCAG, the “PBM E-score” value was inactive: 0.276.

As to CAGGCTAG, the “PBM E-score” value is inactive: -0.202.

Regarding ACGCACGA, the “PBM E-score” value is inactive: -0.00376.

CTGTGAAA: the “PBM E-score” value is inactive: 0.0676.

For the sequence ATAGTTCG, the “PBM E-score” value was inactive: 0.094.

Consider ATGCGTCC, for which the “PBM E-score” value was inactive: -0.111.

GGACGCAA: the “PBM E-score” value is inactive: -0.116.

ATAGTAAC: the “PBM E-score” value is inactive: 0.226.

Turning to GCGAGCTA, the “PBM E-score” value was inactive: -0.0948.

Take AGAGTAAA: the “PBM E-score” value is inactive: 0.0325.

Consider ACGTTACT, for which the “PBM E-score” value was inactive: 0.105.

Turning to AACACAAA, the “PBM E-score” value was inactive: 0.207.

For the sequence TCAAAGCA, the “PBM E-score” value was inactive: 0.0158.

On to CATTGTCG, for which the “PBM E-score” value is inactive: 0.0947.

On to ACAGTCAA, for which the “PBM E-score” value is inactive: 0.0187.

Take TAACAGTA: the “PBM E-score” value was inactive: 0.142.

Turning to CTCGAACC, the “PBM E-score” value is inactive: -0.035.

For the sequence CACAGGAG, the “PBM E-score” value was inactive: 0.0312.

Take CTGTGTGC: the “PBM E-score” value was inactive: -0.0744.

For the sequence CGCTACGA, the “PBM E-score” value is inactive: -0.0623.

For the sequence CGTGCCCC, the “PBM E-score” value is inactive: -0.14.

Take CATGCTAC: the “PBM E-score” value was inactive: 0.15.

Turning to GATAGCCA, the “PBM E-score” value was inactive: -0.0628.

As for AGGCCCAG, the “PBM E-score” value was inactive: -0.214.

As for CTGATAAA, the “PBM E-score” value is inactive: 0.131.

As for ACCGAGTC, the “PBM E-score” value is inactive: -0.0964.

Consider ACCGACAG, for which the “PBM E-score” value is inactive: -0.082.
